Data published in PubChem BioAssay AID2202238 (Ras Initiative Chemistry Research Team, Frederick National …, 2025).
This is one part of the list. These are further read-outs of the screen, such as a control signal, another cell line or another target. No call is given for them.

Molecular target: GTPase KRas (Homo sapiens) (UniProt P01116)
Experiment: Cysteine mutants labelled by reactive fragments (mass read-out) (AID 2202238)
Set-up: protein at 5 µM with 500 µM competing thiol for 1.5 h
Conditions: KRAS G12D cysteine mutants, disulfide tethering, MALDI-TOF labeling, stronger effect = higher value, fragment at 500 µM
[1] = measured here: G60C mutant labeling
[2] = measured here: G75C mutant labeling
[3] = measured here: H94C mutant labeling
[4] = measured here: I36C mutant labeling
[5] = measured here: L120C mutant labeling
[6] = measured here: M67C mutant labeling
[7] = measured here: M72C mutant labeling
[8] = measured here: N26C mutant labeling
[9] = measured here: N86C mutant labeling
[10] = measured here: P121C mutant labeling
[11] = measured here: S122C mutant labeling
[12] = measured here: S136C mutant labeling

UniProt P01116, sequence (P01116 whole entry, looked up, the tested form may be a part): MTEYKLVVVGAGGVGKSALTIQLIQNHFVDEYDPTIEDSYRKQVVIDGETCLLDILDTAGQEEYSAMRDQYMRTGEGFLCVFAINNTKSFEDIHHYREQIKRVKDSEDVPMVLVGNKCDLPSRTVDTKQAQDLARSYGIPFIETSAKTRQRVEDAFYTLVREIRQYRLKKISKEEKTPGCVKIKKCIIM

Structure (SMILES) | percent labeling [1] [%] | percent labeling [2] [%] | percent labeling [3] [%] | percent labeling [4] [%] | percent labeling [5] [%] | percent labeling [6] [%] | percent labeling [7] [%] | percent labeling [8] [%] | percent labeling [9] [%] | percent labeling [10] [%] | percent labeling [11] [%] | percent labeling [12] [%]
O=C(NCCS)c1ccc(CN2C(=O)CNC2=O)cc1 | 26.7 | 19.3 | 35.5 | 25.1 | 39.4 | 35 | 47.6 | 46.5 | 37.6 | 25.7 | 36.4 | 45.1
O=C(NCCS)c1csc(-c2cccc3ccccc23)n1 | 21.1 | 9.1 | 13.7 | 8 | 12.3 | 11 | 39.8 | 24.7 | 12.2 | 12.4 | 6.3 | 12.6
O=C(CCS)NC1CC(Cn2ccnn2)C1 (configuration not stated) | – | 11.1 | 24.8 | 39.5 | 24.9 | 30.8 | 17.1 | – | 30.2 | 41.2 | 36.6 | 53.1
O=C(NCCS)c1sc(N2CCOCC2)nc1Cl | 27 | 23.7 | 21.2 | 19.5 | 21.5 | 25.5 | 62.8 | 36.3 | 14.8 | 16.2 | 17.5 | 37.4
Cc1c(C(=O)NCCS)nnn1-c1ccc(F)cc1 | 29.1 | 14.6 | 21.2 | 16.4 | 22.6 | 17.8 | 50.7 | 39.5 | 18.3 | 20.8 | 17.6 | 24.9
O=C(NCCS)c1coc(-c2c(F)cccc2F)n1 | 24.4 | 13.9 | 20.2 | 16.2 | 31.2 | 18.9 | 42.6 | 29.5 | 16.2 | 26 | 17.7 | 28.8
CC1(C)Cc2occc2CN(C(=O)CCS)C1 | – | 21.1 | 44.5 | 31.3 | 28.6 | 34.8 | 68.2 | – | 33.4 | 34.8 | 35.6 | 61.7
O=C(CCS)N1CCC(c2c[nH]c3ccc(F)cc23)CC1 | – | 24.7 | 25 | 28.6 | 15.3 | 37.5 | 45.6 | – | 18.2 | 19.2 | 12.8 | 28.9
COc1cc(CNC(=O)CCS)ccc1OCc1cccnc1 | – | 13.9 | 29.4 | 38.2 | 24.9 | 40.1 | 33 | – | 25.7 | 24.7 | 26.3 | 42.3
O=C(NCCS)[C@]12CCC[C@H]1CN(Cc1ccccc1)C2 | 49.2 | 26.9 | 35.3 | 27.6 | 23.9 | 38.4 | 37 | 39.7 | 25.1 | 25.6 | 17.2 | 36.2
CN(CC1CCCCC1)C(=O)C(C)(C)NC(=O)CCS | – | 13.5 | 45.3 | 40.5 | 34.4 | 42.7 | 33.2 | – | 34.9 | 38.6 | 35.9 | 61.5
O=C(NCCS)C1CCN(C(=O)c2csc(-c3ccccc3)n2)CC1 | 25.9 | 13.6 | 20.2 | 16.3 | 13.6 | 33.3 | 27.1 | 30.9 | 14.8 | 15.2 | 49.9 | 22.7
Cc1ccc(CNC(=O)CCS)c(-n2cc(Cl)cn2)n1 | – | 11.5 | 29.8 | 35 | 23.7 | 33 | 20.6 | – | 18 | 25.7 | 23.2 | 45
O=C(NCCS)c1cnc(-c2ccccc2)nc1 | 8.8 | 8.9 | 7.4 | 7.2 | 8.6 | 6.7 | 25.5 | 18.8 | 4.6 | 11.3 | 7.7 | 15.8
CCc1n[nH]c(=O)c(C(=O)NCCS)c1CC | 36 | 13.3 | 29.7 | 22.5 | 38.9 | 32 | 23.4 | 39.6 | 28.9 | 42.4 | 31.4 | 47.6
Cc1ccc(C)c(Sc2ccc(NC(=O)CCS)cc2)c1 | – | 12.2 | 16 | 20.4 | 15.6 | 31.6 | 38 | – | 25 | 18.5 | 10.7 | 36.2
O=C(CC1(Cn2cnnn2)CCCCC1)NCCS | 53.4 | 16.2 | 43.4 | 45.9 | 45.4 | 41.4 | 34.9 | 35.1 | 33 | 39.5 | 36.2 | 60.3
O=C(CCS)NC1(Cc2cccc(Br)c2)CC1 | – | 14.2 | 43.2 | 30.8 | 18.5 | 37.1 | 53.2 | – | 21 | 29.6 | 24.6 | 49.3
O=C(CCS)NCCc1ccc(O)cc1O | – | 16.8 | 34.9 | 43 | 29.7 | 37.4 | 36.3 | – | 36.4 | 32.3 | 36.9 | 49.3
CC(C)(NC(=O)CCS)c1nccc(C(F)(F)F)n1 | – | 10.2 | 36.8 | 37.5 | 35.7 | 35.8 | 26.9 | – | 37.6 | 38.8 | 40.9 | 53.2
O=C(NCCS)c1cc(Br)c2c(c1)OCCO2 | 40.7 | 21.2 | 18.7 | 12.1 | 14.5 | 13.1 | 37 | 29.7 | 12.7 | 13.1 | 9.3 | 19.4
O=C(NCCS)c1nc(-c2cccc(C(F)(F)F)c2)cs1 | 27.7 | 20.9 | 18.8 | 9.6 | 8.6 | 7.5 | 47.7 | 20.3 | 10.6 | 16.4 | 5.6 | 12.9
O=C(NCCS)c1csc(Cc2ccccc2F)n1 | 22.8 | 10.3 | 17.5 | 10 | 16.4 | 13.4 | 34.4 | 25.5 | 11.2 | 13.2 | 10.5 | 18.7

Structure (SMILES) | percent labeling [1] [%] | percent labeling [2] [%] | percent labeling [3] [%] | percent labeling [4] [%] | percent labeling [5] [%] | percent labeling [6] [%] | percent labeling [7] [%] | percent labeling [8] [%] | percent labeling [9] [%] | percent labeling [10] [%] | percent labeling [11] [%] | percent labeling [12] [%]
CCc1c(C(=O)NCCS)[nH]c(C)c1C(N)=O | 37.2 | 22.8 | 40.8 | 34.9 | 47.4 | 35.7 | 41.1 | 47.4 | 37.9 | 32.3 | 36.6 | 45.8
O=C(NCCS)c1csc2cc(Cl)cnc12 | 33.6 | 42 | 23.6 | 8.1 | 14.3 | 12.4 | 57.8 | 30.9 | 7.3 | 13.2 | 8.5 | 17.4
O=C(NCCS)c1cc(-c2ccncc2)nc2ccccc12 | 33.5 | 11.7 | 14.6 | 14 | 13.7 | 15.6 | 30.7 | 40.6 | 8.5 | 12.2 | 9.3 | 24.3
O=C(CCS)N1C[C@@H]2Oc3c(F)ccc(F)c3O[C@@H]2C1 | – | 0 | 27.5 | 34.1 | 25.8 | 38.4 | 37.8 | – | 28.6 | 32.4 | 20.3 | 49.2
N#Cc1cccc(CN2C(=O)CCC2C(=O)NCCS)c1 (configuration not stated) | 37.9 | 14.6 | 36.6 | 34.6 | 26.8 | 39.9 | 16.2 | 35.6 | 26.6 | 33.6 | 31 | 46.4
O=C(CCS)Nc1ccn(CCN2CCNC2=O)n1 | – | 8.9 | 31 | 34 | 34 | 31.6 | 20.7 | – | 20.1 | 29.7 | 32.7 | 45.2
Cc1ccc(-c2cc(C(=O)NCCS)c3cnn(C(C)C)c3n2)s1 | 17.7 | 6.8 | 9.4 | 8.3 | 5.7 | 3.7 | 45.7 | 27.3 | 2.7 | 6.3 | 0 | 15
Nc1ncnc2c1ncn2C[C@H]1CC[C@@H](C(=O)NCCS)O1 | 21 | 12.4 | 29.4 | 25.1 | 25.6 | 35.3 | 12.7 | 39.1 | 19.5 | 21.9 | 26.8 | 44.7
O=C(NCCS)c1ccc(Oc2ccc(Cl)cc2)c(F)c1 | 21.5 | 7.5 | 11.3 | 10.1 | 7.7 | 15.6 | 25.4 | 20.8 | 11.6 | 14.5 | 4.5 | 7.4
Cc1nc(C2CCCC2)sc1C(=O)NCCS | 19.7 | 15.1 | 18.9 | 12.2 | 22.2 | 16.3 | 49.8 | 30.6 | 11.5 | 16.9 | 15.5 | 35.4
Cc1sc(C2(NC(=O)CCS)CCC2)nc1-c1ccccc1F | – | 9.8 | 19.2 | 15.6 | 23.7 | 17.2 | 27.9 | – | 11.9 | 13.4 | 12.2 | 40.4
Cn1cc(CCC(=O)NCCS)cn1 | 29.3 | 19.6 | 31 | 28.8 | 32.6 | 32.6 | 16.9 | 33.7 | 25.5 | 32.5 | 30.6 | 37.2
O=C(CCS)NCCc1nc2ncccn2n1 | – | 5.8 | 22.5 | 41.4 | 31.5 | 32.9 | 11.8 | – | 21.6 | 39.4 | 33 | 48
NC(=O)c1cn(C2CCN(C(=O)CCS)CC2)nn1 | – | 12.1 | 34.4 | 45.8 | 47.5 | 48.1 | 26.6 | – | 33.7 | 40.7 | 39.6 | 65.1
O=C(CCS)NCc1ccnc(-n2cncn2)c1 | – | 13.3 | 24.5 | 36.7 | 29.9 | 35.6 | 25.5 | – | 19.6 | 31.2 | 31.8 | 46.3
O=C(CCS)N1CCN(C(=O)c2n[nH]c3ccccc23)CC1 | – | 14.7 | 35.4 | 50.8 | 33.4 | 79.8 | 34.4 | – | 26.4 | 40.9 | 33.4 | 57
O=C(NCCS)c1ccc(-n2ccnc2)cn1 | 36.8 | 31 | 35.1 | 26.8 | 29.9 | 35.7 | 53.6 | 45.4 | 27.8 | 26 | 24.9 | 47.5
O=C(CCn1c2ccc(Cl)cc2c2cc(Cl)ccc21)NCCS | 29.8 | 8.5 | 17.5 | 12.5 | 10 | 6.4 | 25.8 | 23.5 | 10.5 | 7.8 | 2.8 | 6.9
NC(=O)NC(CC(=O)NCCS)c1cccs1 (configuration not stated) | 26.9 | 8.9 | 25.4 | 23.9 | 31.5 | 27.3 | 15 | 28 | 23.2 | 30.8 | 25.4 | 33.9
O=C(CCS)N1CCN(C(=O)c2cccc(F)c2)CC1 | – | 13 | 36.2 | 41.6 | 31.7 | 40.4 | 29 | – | 26 | 42.4 | 37 | 58.6
Cc1cc(C)n(C)c(=O)c1CNC(=O)CCS | – | 9.7 | 26.9 | 34.1 | 32.2 | 33.2 | 17.2 | – | 21.2 | 36.3 | 31.3 | 55.7
Cc1nc(-c2cnn(C)c2)sc1C(=O)NCCS | 31.5 | 23.2 | 32 | 25 | 35.2 | 31.8 | 54.5 | 54.6 | 28.7 | 24 | 27.6 | 42.3
COc1ccccc1N(Cc1nc(C)cs1)C(=O)CCS | – | 20.4 | 49.4 | 34 | 32.3 | 44.1 | 39.4 | – | 26 | 30.6 | 26 | 67.5
